The target of experiment [1] is Full length human sonic hedgehog with HA tag (SHH-HA), glycosylated (human) (UniProt Q15465). Description: co-IP; 293T cells stably expressing SHH-HA or N278A-HA, untreated or treated with castanospermine (CST, 0.2 mg/ml, 90 min); lysed in buffer with 1% digitonin; immunoprecipitated with HA antibodies; blotted for endogenous calnexin, calreticulin and ERp57.
Experiment [2] has as its target Non-glycosylated human sonic hedgehog mutant N278A with HA tag (N278A-HA) (human) (UniProt Q15465). The experiment is described as above.
The target of experiment [3] is T1, Myc-tagged wild type EDEM1 (human) (UniProt Q92611).
T1 sequence: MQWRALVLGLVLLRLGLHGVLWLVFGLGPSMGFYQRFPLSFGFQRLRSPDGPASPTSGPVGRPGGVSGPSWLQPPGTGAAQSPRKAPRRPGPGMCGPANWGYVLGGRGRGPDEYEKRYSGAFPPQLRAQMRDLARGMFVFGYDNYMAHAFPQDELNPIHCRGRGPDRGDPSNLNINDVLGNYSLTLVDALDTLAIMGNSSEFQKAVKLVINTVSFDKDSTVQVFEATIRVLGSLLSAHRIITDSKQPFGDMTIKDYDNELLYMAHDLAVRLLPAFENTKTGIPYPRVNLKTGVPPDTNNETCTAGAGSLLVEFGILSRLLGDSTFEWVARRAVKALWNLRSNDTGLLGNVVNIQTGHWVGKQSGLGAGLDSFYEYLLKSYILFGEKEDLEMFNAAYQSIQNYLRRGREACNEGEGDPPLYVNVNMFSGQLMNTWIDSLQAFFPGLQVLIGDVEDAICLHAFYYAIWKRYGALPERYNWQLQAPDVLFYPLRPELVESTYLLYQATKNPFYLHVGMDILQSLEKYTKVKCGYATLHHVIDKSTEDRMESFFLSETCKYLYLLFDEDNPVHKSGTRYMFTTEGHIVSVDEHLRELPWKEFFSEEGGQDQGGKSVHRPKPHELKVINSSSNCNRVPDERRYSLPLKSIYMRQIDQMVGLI
Nature of the experiment: co-IP; 293T cells transfected with Myc-tagged EDEMs (10% of the DNA normally used); lysed in buffer with 1% Triton; immunoprecipitated with Myc antibodies; blotted for endogenous SEL1L, HRD1, Bip, calnexin and ERp57.

Amino acid sequences for entries named in this document (tags omitted). Residues count along the entry.
UniProt P30101, residues 25-505: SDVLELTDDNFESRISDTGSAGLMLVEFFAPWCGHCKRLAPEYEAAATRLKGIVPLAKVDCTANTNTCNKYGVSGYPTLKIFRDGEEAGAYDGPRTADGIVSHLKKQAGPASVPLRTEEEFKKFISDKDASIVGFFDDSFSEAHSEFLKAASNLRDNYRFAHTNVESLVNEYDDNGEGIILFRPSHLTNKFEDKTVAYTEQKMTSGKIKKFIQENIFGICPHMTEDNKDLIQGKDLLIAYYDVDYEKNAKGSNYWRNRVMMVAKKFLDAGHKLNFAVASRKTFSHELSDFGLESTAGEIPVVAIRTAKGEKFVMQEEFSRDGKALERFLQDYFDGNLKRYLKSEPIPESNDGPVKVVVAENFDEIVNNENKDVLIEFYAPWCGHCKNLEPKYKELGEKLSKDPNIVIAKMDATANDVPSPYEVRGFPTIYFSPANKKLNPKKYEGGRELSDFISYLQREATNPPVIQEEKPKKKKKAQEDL

In experiment [4] the target is T2, Myc-tagged wild type EDEM2 (human) (UniProt Q9BV94).
T2 sequence: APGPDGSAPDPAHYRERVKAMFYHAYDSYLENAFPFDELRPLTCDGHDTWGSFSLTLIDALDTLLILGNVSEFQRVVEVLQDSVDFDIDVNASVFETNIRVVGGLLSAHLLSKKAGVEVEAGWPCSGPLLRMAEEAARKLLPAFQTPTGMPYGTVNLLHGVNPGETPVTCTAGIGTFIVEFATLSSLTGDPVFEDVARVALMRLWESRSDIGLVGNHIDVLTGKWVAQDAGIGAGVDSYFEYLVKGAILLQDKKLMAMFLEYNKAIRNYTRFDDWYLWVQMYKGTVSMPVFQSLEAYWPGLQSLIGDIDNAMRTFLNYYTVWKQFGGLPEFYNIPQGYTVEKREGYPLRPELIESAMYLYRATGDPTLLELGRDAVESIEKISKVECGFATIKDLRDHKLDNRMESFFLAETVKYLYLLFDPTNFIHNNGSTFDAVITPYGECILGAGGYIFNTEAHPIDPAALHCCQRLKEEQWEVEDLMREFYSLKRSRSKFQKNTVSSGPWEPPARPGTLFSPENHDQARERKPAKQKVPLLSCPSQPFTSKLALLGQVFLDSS
The experiment is described as above.

Experiment [5] addresses T3, Myc-tagged wild type EDEM3 (human) (UniProt Q9BZQ6).
T3 sequence: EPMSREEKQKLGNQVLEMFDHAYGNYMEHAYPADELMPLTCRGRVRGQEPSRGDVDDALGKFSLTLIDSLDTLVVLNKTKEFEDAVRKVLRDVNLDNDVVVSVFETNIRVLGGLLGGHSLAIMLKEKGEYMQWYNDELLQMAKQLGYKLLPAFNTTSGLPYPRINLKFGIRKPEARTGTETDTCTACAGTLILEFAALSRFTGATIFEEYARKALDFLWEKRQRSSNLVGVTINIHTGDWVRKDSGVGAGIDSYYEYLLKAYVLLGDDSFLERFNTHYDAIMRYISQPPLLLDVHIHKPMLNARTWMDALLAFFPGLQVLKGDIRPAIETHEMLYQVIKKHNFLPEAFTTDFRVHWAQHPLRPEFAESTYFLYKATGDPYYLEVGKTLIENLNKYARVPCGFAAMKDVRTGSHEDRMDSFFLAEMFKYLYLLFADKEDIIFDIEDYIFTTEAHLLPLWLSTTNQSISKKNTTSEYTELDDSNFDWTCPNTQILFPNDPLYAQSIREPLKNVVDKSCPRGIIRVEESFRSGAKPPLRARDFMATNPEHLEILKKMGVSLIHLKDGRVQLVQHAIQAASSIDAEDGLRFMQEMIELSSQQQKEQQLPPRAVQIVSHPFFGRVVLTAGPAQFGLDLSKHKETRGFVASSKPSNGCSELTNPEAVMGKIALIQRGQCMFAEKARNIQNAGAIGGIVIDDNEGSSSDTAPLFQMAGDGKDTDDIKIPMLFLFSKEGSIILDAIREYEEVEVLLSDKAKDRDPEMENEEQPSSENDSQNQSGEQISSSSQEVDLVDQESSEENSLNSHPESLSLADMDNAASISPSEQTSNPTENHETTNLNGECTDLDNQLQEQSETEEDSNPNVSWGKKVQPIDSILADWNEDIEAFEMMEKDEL
The experiment is described as above.

Experiment [6] addresses Non-glycosylated human sonic hedgehog mutant N278A with HA tag (N278A-HA) (human) (UniProt Q15465). Nature of the experiment: co-IP; cells co-transfected with SHH-HA or N278A-HA and vector, wild type OS-9.2 or R188A-OS-9; lysed in buffer with 1% Triton; immunoprecipitated with HA antibodies; blotted with OS-9 antibodies.

No constants are given. Whether binding was seen depends on the method and setting. In cells and extracts the contact can be indirect. Some results given as binding are weak or reduced against the parent protein; the word gives no strength. For some assays here: Sequences can lack the tags named with a protein.

Consider “Calreticulin (from UniProt P27797 18-417)”, for which the binding entry in experiment [1] and in experiment [2] was “no binding” throughout.
As to ERp57 (from UniProt P30101 25-505), the binding result in experiment [3], in experiment [4], in experiment [5], in experiment [1] and in experiment [2] was “no binding” each time.

B1: Wild type OS-9.2 (protein, UniProt Q13438-2 26-612)
chain: GGVGSLNLEELSEMRYGIEILPLPVMGGQSQSSDVVIVSSKYKQRYECRLPAGAIHFQREREEETPAYQGPGIPELLSPMRDAPCLLKTKDWWTYEFCYGRHIQQYHMEDSEIKGEVLYLGYYQSAFDWDDETAKASKQHRLKRYHSQTYGNGSKCDLNGRPREAEVRFLCDEGAGISGDYIDRVDEPLSCSYVLTIRTPRLCPHPLLRPPPSAAPQAILCHPSLQPEEYMAYVQRQADSKQYGDKIIEELQDLGPQVWSETKSGVAPQKMAGASPTKDDSKDSDFWKMLNEPEDQAPGGEEVPAEEQDPSPEAADSASGAPNDFQNNVQVKVIRSPADLIRFIEELKGGTKKGKPNIGQEQPVDDAAEVPQREPEKERGDPERQREMEEEEDEDEDEDEDEDERQLLGEFEKELEGILLPSDRDRLRSEVKAGMERELENIIQETEKELDPDGLKKESERDRAMLALTSTLNKLIKRLEEKQSPELVKKHKKKRVVPKKPPPSPQPTGKIEIKIVRPWAEGTEEGARWLTDEDTRNLKEIFFNILVPGAEEAQKERQRQKELESNYRRVWGSPGGEGTGDLDEFDF
For B1, the binding entry in experiment [6] is on record as “binds”.

The values are drawn from paper PMC4049591.
